# Test results from PubChem BioAssay AID1240 (Sanford-Burnham Center for Chemical Genomics, 2008).
# About 800 (1.6%) of roughly 50,000 compounds showed an effect of 50% or more. This is one part of the list.
# Biological target: Bcl-2-like protein 10 (Homo sapiens) (UniProt Q9HD36)
# Assay: Phenotype converters, Bcl-B/TR3 peptide binding displacement, primary biochemical FP (AID 1240);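 further: 0% = Bcl-B with tracer peptide and DMSO and 100% = tracer peptide lacking Bcl-B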
# Settings: GST-Bcl-B / FITC-TR3 peptide fluorescence polarization; stronger effect = higher value; compound at 3.75 mg/L
# UniProt Q9HD36, sequence (Q9HD36 whole entry, looked up): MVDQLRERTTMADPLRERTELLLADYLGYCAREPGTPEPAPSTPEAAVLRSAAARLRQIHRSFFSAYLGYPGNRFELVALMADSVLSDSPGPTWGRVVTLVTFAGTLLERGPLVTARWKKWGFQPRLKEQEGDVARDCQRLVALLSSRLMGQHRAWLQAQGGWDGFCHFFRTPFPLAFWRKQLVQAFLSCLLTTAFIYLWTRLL
row,SMILES,displacement
1,Cc1cccc(OC(=O)COc2ccc(Cl)cc2Cl)c1,-3.3%
2,Cc1cc(C)n(C(=O)c2cccs2)n1,-8.6%
3,Cc1ccc(/C=C/C(=O)Nc2ccc(F)cc2F)o1,-0.7%
4,CCOc1ccc(C(=O)Nc2ccc([N+](=O)[O-])cc2)cc1Cl,-9.7%
5,Cc1ccccc1NS(=O)(=O)c1ccc2c(c1)C(=O)c1cc(S(=O)(=O)Nc3ccccc3C)ccc1-2,4.5%
6,CC1=C(C(=O)OCc2ccccc2)C(c2cccc(Cl)c2Cl)C2=C(CCCC2=O)N1 (stereo not given),-2.1%
7,COc1cc(Oc2ccccc2)nc(N)n1,-3.3%
8,CCc1ccccc1N(CC(=O)Nc1ccccc1Br)S(C)(=O)=O,-3.5%
9,COc1cccc(OC)c1C(=O)Nc1ccc(C)cc1Br,1.9%
10,CC(=O)Nc1ccc(N2C(=O)c3ccc(C(=O)c4cccc([N+](=O)[O-])c4)cc3C2=O)cc1,-5.3%
11,CCCSc1nsc(SCCC)c1C(=O)O,1.8%
12,O=C(Nc1ccc(N2CCOCC2)c(Cl)c1)c1ccc([N+](=O)[O-])cc1Cl,2.5%
13,O=C(Nc1ccc(O)cc1)c1ccc(Oc2ccc([N+](=O)[O-])cc2)cc1,3.2%
14,CCC1Nc2ccc(C)cc2C(Nc2ccc(C)cc2)C1C (stereo not given),10.4%
15,Cc1cc(/C=C2\C(=O)NC(=O)N(c3ccc4c(c3)OCO4)C2=O)c(C)n1-c1ccc(F)cc1,8%
16,CC1=C(C)CC(C(=O)NCCc2ccccc2)C(C(=O)O)C1 (stereo not given),16.6%
17,CCN(CC)c1ccc(/C=C2/C(=O)NN(c3ccc(C)cc3)C2=O)c(O)c1,23.1%
18,CCOC(=O)c1ccc(NC(=O)c2ccc(OCC(C)C)cc2)cc1,15.2%
19,CC1(C)CC(=O)C2=C(C1)Nc1ccccc1N(C(=O)c1ccc(Cl)cc1)C2c1ccccn1 (stereo not given),-3.4%
20,COc1ccc(S(=O)(=O)NCc2ccccc2C)cc1OC,-2.5%
21,COc1ccc(O)c(C2=Nc3ccccc3N=C(C(F)(F)F)C2)c1,3.6%
22,CCOC(=O)c1ccc(N/C=C/C(=O)c2ccc(Cl)cc2)cc1,59.8%
23,CC(=O)Nc1cccc(-c2nc3cc(C)ccc3o2)c1C,99.7%
24,CCN(CC)S(=O)(=O)c1ccc(Cl)c(C(=O)Oc2ccc([N+](=O)[O-])cc2)c1,3.3%
25,CCO/C=C1\C(=O)N(CC)c2ccccc21,19.1%
26,CCCCOc1ccc(C(=O)Nc2ccc(-c3nc4ncccc4o3)cc2)cc1,10.6%
27,Cc1ccc(C2/C(=C(/O)c3ccccc3)C(=O)C(=O)N2c2cccc(C)c2)cc1 (stereo not given),18.1%
28,CCOC(=O)C1=NN(C(=O)c2ccncc2)C(O)(C(C)(C)C)C1 (stereo not given),-22.6%

row,SMILES,displacement
1,CC(=Nc1ccc(N)cc1)C1=C(O)c2ccccc2C1=O,3.9%
2,O=C(Nc1ccc2oc(-c3ccccc3)nc2c1)c1ccccc1I,13.5%
3,CC(=O)Nc1ccc(OC(=O)c2ccc([N+](=O)[O-])cc2)cc1,-3.2%
4,O=C(NCCN1CCOCC1)c1nn2c(C(F)(F)F)cc(-c3ccc(Br)cc3)nc2c1Cl,4.5%
5,N#CC1C(=S)N=C2CCCCC2=C1c1cccs1 (stereo not given),5.7%
6,Cc1ccc(NC(=O)c2ccc(-c3ccc(Br)cc3)o2)c([N+](=O)[O-])c1,0.1%
7,O=C(c1ccc(OCc2ccccc2)cc1)N1CCN(c2ccc([N+](=O)[O-])cc2)CC1,17.9%
8,Cc1cc(C)nc(NS(=O)(=O)c2ccc(NS(=O)(=O)c3ccc4c(c3)C(=O)c3ccccc3-4)cc2)n1,8.4%
9,COCCOC(=O)c1c(C)oc2ccc(OC(=O)c3ccc(OC)c(OC)c3)cc12,7.8%
10,O=C1/C(=C\c2ccc3c(c2)OCO3)N=C(c2ccccc2)N1c1ccc(F)cc1,179%
11,Cc1ccc(C(=O)c2c(N)sc3c2CCCC3)cc1,-5.3%
12,CC1=C(C(=O)OCCOc2ccccc2)C(c2ccccc2[N+](=O)[O-])NC(=O)N1C (stereo not given),2.9%
13,CC(=O)C(=Cc1cc(C(C)(C)C)c(O)c(C(C)(C)C)c1)C(C)=O,-5.3%
14,COC(=O)c1c(-c2ccc(Cl)cc2)csc1NC(=O)C1CC=CCC1C(=O)O (stereo not given),12.3%
15,Cc1cc(OCCCCn2ccnc2)cc(C)c1Cl,12.6%
16,Cc1ccc(Cl)cc1NC(=O)C(=O)NN=C1CCN(C)CC1,-6.6%
17,O=[N+]([O-])c1ccc(N2CCNCC2)cc1Sc1cccc2cccnc12,5.7%
18,CC1CC(Nc2ccccc2)c2ccccc2N1C(=O)NC1CCCCC1 (stereo not given),3.9%
19,COc1c(Cl)cc(C(=O)Nc2ccc(F)c([N+](=O)[O-])c2)cc1Cl,7%
20,Cc1cc(F)c(F)cc1C(=O)N1CCN(c2cc(N3CCCCC3)c(F)cc2[N+](=O)[O-])CC1,0%
21,Cc1ccc(N2C(=O)C3C(C2=O)C2(C)C(=O)C3(C)C(c3ccccc3)=C2c2ccccc2)cc1C (stereo not given),0.2%
22,Cc1ccc(-c2ccc(-c3nnc(N)o3)s2)s1,45.5%
23,O=c1c2c(nc3cc(-c4cccc(F)c4)[nH]n13)CCCC2,11%
24,O=C(NC(=S)NC1CCSC1=O)c1ccco1 (stereo not given),1%
25,COc1ccc(CCn2c(O)c(/C=C3/C=c4ccccc4=NC3=O)sc2=S)cc1OC,13.2%
26,CC(O)c1cccc(NC(=O)c2nn3c(c2Cl)NC(c2cccs2)CC3C(F)(F)F)c1 (stereo not given),6.1%
27,O=C(Nc1ccc(OC(F)(F)F)cc1)c1nn2c(c1Br)NC(c1cccs1)CC2C(F)(F)F (stereo not given),12.3%
